The record followed here is article PMC10668032.

Some of the results follow. At the low end of the ranking, values are background and their order means little.

The assay deals with SIX1-Q177R homeodomain (UniProt Q15475). The assay can be described thus: universal protein binding microarray. Particulars: Universal all-10-mer PBM (8x60K, AMADID 030236), 300 nM GST-tagged protein, Alexa Fluor 488 anti-GST; buffer, salt, pH and temperature not stated; high values mean tight binding; most listed sequences are background and not binding sites; double strand, one strand shown.
For AAAGTCAG, the binding signal was -0.179 E-score.

For the sequence CGGTTTAA, the binding signal was -4e-05 E-score.

For GCCAGTAC, the binding signal was -0.101 E-score.

Consider AGAGATCC, for which the binding signal is -0.0895 E-score.

For AAGGTCCC, the binding signal was -0.195 E-score.

With CCATTCAG, the binding signal was -0.0783 E-score.

Consider TCCGCAAA, for which the binding signal was -0.136 E-score.

Consider GCCCACAC, for which the binding signal worked out at 0.255 E-score.

For CTGATTTA, the binding signal was -0.0876 E-score.

As for CCGATACC, the binding signal turned out to be 0.361 E-score.

Take AGGCTGAG: the binding signal is -0.157 E-score.

CGTACGGA: the binding signal is -0.012 E-score.

Turning to CCGCGTAC, the binding signal was 0.148 E-score.

Consider GACTCCCC, for which the binding signal is 0.161 E-score.

As for GTGTGTTA, the binding signal is 0.298 E-score.

For the sequence GCAAGTCC, the binding signal was -0.0545 E-score.

As to CGATTAAC, the binding signal came out at 0.227 E-score.

As for ACCGCACC, the binding signal worked out at 0.247 E-score.

CTGCAGGA: the binding signal is -0.166 E-score.

CGCGCAAC: the binding signal amounted to 0.0495 E-score.

Turning to CACTGAAA, the binding signal was 0.0961 E-score.

On to CAGATATC, for which the binding signal is 0.0442 E-score.

Regarding AAAAATGC, the binding signal came to 0.0151 E-score.

Consider GCGAAGTA, for which the binding signal was -0.14 E-score.

With CCTAAGGA, the binding signal came out at 0.0374 E-score.

Consider ATCGCGCG, for which the binding signal was -0.0473 E-score.

AGGGTATG: the binding signal is 0.226 E-score.

Take AGACGGGG: the binding signal was determined as 0.0576 E-score.

As for AGCGTCGG, the binding signal is -0.126 E-score.

Turning to AGCAAATA, the binding signal was -0.192 E-score.

Take ATTGCTCA: the binding signal is -0.154 E-score.

For the sequence CTCAAGAG, the binding signal was -0.217 E-score.

On to AGGATGGA, for which the binding signal is -0.255 E-score.

ACCCGCCT: the binding signal amounted to 0.206 E-score.

On to AAAACCTA, for which the binding signal is -0.252 E-score.

For the sequence CCCGCCAA, the binding signal is 0.00322 E-score.

On to GGGGAGGA, for which the binding signal came to 0.00218 E-score.

Take TCGCTGCA: the binding signal is -0.278 E-score.

As to GTGCGGAA, the binding signal was 0.0821 E-score.

As to ACAGTTTA, the binding signal was -0.0784 E-score.

Turning to GACTCGTA, the binding signal was found to be 0.0647 E-score.

On to ATGGCAAG, for which the binding signal was -0.264 E-score.

AGCATCCG: the binding signal was found to be 0.03 E-score.

Turning to TACTAACA, the binding signal came out at 0.185 E-score.

Regarding TCACACGA, the binding signal worked out at 0.226 E-score.

In the case of CGCTTGGC, the binding signal was -0.0892 E-score.

In the case of ATGGGTGG, the binding signal came to 0.0958 E-score.

Turning to AAAAAAGC, the binding signal is -0.357 E-score.

For CTAATACC, the binding signal was 0.0317 E-score.

With CCTCGCAC, the binding signal came out at 0.131 E-score.

For ATTGCACG, the binding signal came out at 0.00949 E-score.

On to ACGACAGC, for which the binding signal was -0.106 E-score.

Consider ACATCACC, for which the binding signal was -0.0533 E-score.

For CGAGAGAG, the binding signal was -0.023 E-score.

As to AATCCGAG, the binding signal is -0.0428 E-score.

Turning to ACCCTTGA, the binding signal came out at 0.146 E-score.

CGGCCGGC: the binding signal is -0.0369 E-score.

Regarding AAGGTGCG, the binding signal turned out to be 0.09 E-score.

Regarding ACCCGTAC, the binding signal came to 0.134 E-score.

Take ACCACATG: the binding signal was 0.0728 E-score.

Regarding ATTAGATG, the binding signal was -0.0667 E-score.

As for CCTCCATC, the binding signal is -0.0436 E-score.

For ATGCCCTG, the binding signal turned out to be 0.00891 E-score.

Regarding CCGGGGTC, the binding signal worked out at 0.323 E-score.

Consider GATTAGGA, for which the binding signal is -0.183 E-score.

As to AAATAGGA, the binding signal is -0.132 E-score.

On to GGGAATTA, for which the binding signal was -0.141 E-score.

GCTAACGA: the binding signal is -0.004 E-score.

With ACGCTAAT, the binding signal is -0.263 E-score.

Turning to CGACCCCG, the binding signal was 0.255 E-score.

As to AAGACCCA, the binding signal was -0.259 E-score.

With TCCGGCAA, the binding signal was -0.00316 E-score.

As to CTGTAACC, the binding signal is -0.0031 E-score.

In the case of GCGGCCGA, the binding signal was -0.186 E-score.

Turning to GAGAAGCC, the binding signal was -0.194 E-score.

With ATCCAGCA, the binding signal is -0.13 E-score.

CGAAACAC: the binding signal came out at 0.339 E-score.

With AAACAAGA, the binding signal was -0.0272 E-score.

For CAAGGGAG, the binding signal was determined as 0.00352 E-score.

On to AAACTTAA, for which the binding signal is -0.237 E-score.

Take AAGTCCCG: the binding signal is -0.169 E-score.

On to CTCGGAAG, for which the binding signal is -0.0441 E-score.

For CTGTTCGA, the binding signal is -0.183 E-score.

For the sequence TACATGCA, the binding signal is -0.0265 E-score.

TATTGGGA: the binding signal is 0.0187 E-score.

With AAGGGGTG, the binding signal was 0.227 E-score.

As to CGTGGATA, the binding signal came to 0.0791 E-score.

As to CGCGATAG, the binding signal is -0.112 E-score.

For the sequence AAGATGTG, the binding signal was -0.00104 E-score.

As for AGTTCCAG, the binding signal is -0.0276 E-score.

As for GATAAACA, the binding signal worked out at 0.00274 E-score.

CCATTTTA: the binding signal was determined as 0.0355 E-score.

In the case of AAGAACGA, the binding signal is -0.0291 E-score.

Turning to CATCAGCG, the binding signal came out at 0.153 E-score.

Take GAACACAA: the binding signal amounted to 0.13 E-score.

For CCTGATTC, the binding signal was -0.182 E-score.

On to AAACGCCC, for which the binding signal was -0.0508 E-score.

Take CAAGGGGA: the binding signal was -0.0885 E-score.

As for CCTGGACC, the binding signal is -0.103 E-score.

As to ATTTGGTA, the binding signal is 0.00694 E-score.

With CTAAGTAA, the binding signal is -0.16 E-score.

Take CCGCTGAA: the binding signal is -0.13 E-score.

Regarding AAGGCCTG, the binding signal is -0.215 E-score.

Consider AATATGCG, for which the binding signal is -0.0226 E-score.

With CTCGGAGC, the binding signal was -0.0463 E-score.

For AAATTCAT, the binding signal was -0.176 E-score.

For the sequence GGAGGCTA, the binding signal was found to be 0.0196 E-score.

For the sequence GACGCTTA, the binding signal was determined as 0.047 E-score.

Take CCAAACCC: the binding signal came out at 0.0736 E-score.

Regarding GGCCAACA, the binding signal is 0.217 E-score.

In the case of GCCCTCGA, the binding signal was -0.104 E-score.

In the case of ACGGGAGA, the binding signal was determined as 0.0309 E-score.

Consider AATAAGCT, for which the binding signal is -0.0358 E-score.

As to GAGTGCAA, the binding signal amounted to 0.144 E-score.

Regarding AAAGATGA, the binding signal is 0.0114 E-score.

On to CACTAAAA, for which the binding signal amounted to 0.0649 E-score.

Take CGCCAAAC: the binding signal is -0.0379 E-score.

Take CTCATATC: the binding signal was -0.25 E-score.

On to AATGTTAC, for which the binding signal was -0.081 E-score.

As to ACGTCCTG, the binding signal was -0.0852 E-score.

For the sequence GTCGTGAA, the binding signal was found to be 0.017 E-score.

TCCGTCAA: the binding signal was -0.204 E-score.

Take ACTTGCGA: the binding signal worked out at 0.0486 E-score.

For CTTGATCC, the binding signal is 0.151 E-score.

CAAGGAAA: the binding signal is -0.166 E-score.

Turning to ATTTGTTA, the binding signal was -0.282 E-score.

Take CAACACTC: the binding signal stood at 0.36 E-score.

Turning to AACGTAGG, the binding signal is -0.0932 E-score.

As for ATGTCCTC, the binding signal was -0.0974 E-score.

As to AGTATAAA, the binding signal is -0.103 E-score.

For CCTCAGAC, the binding signal is -0.0762 E-score.

As for GCAGGGCA, the binding signal is -0.062 E-score.

In the case of AATGGTAT, the binding signal came to 0.227 E-score.

Consider CACTCGCG, for which the binding signal was determined as 0.232 E-score.

CTCAAGAC: the binding signal was -0.0575 E-score.

Regarding CGTTGGTC, the binding signal is -0.0903 E-score.

Take CAACGCCC: the binding signal was determined as 0.00874 E-score.

Consider CTTGGCCA, for which the binding signal was -0.0399 E-score.

For the sequence CTCGTCAG, the binding signal was -0.00466 E-score.

On to AGACGACG, for which the binding signal is -0.0138 E-score.

With AGTGGCGG, the binding signal was -0.0362 E-score.

On to ACCCTAGC, for which the binding signal was determined as 0.15 E-score.

As for GCAATCCC, the binding signal is -0.0647 E-score.

As for CGGGACCA, the binding signal is -0.235 E-score.

For the sequence GTAACTGA, the binding signal is -0.0896 E-score.

Take ACAACCCA: the binding signal was determined as 0.0452 E-score.

Regarding AAGGAGAA, the binding signal was -0.186 E-score.

Turning to CCAACGTC, the binding signal was -0.092 E-score.

GTCTAATA: the binding signal was found to be 0.0285 E-score.

In the case of ACTATAGT, the binding signal amounted to 0.00543 E-score.

For ATTCACCG, the binding signal is -0.286 E-score.

Take CTAGCGTA: the binding signal is 0.0681 E-score.

Consider AAGTCGCA, for which the binding signal was -0.144 E-score.

Take ACGACGCG: the binding signal worked out at 0.0486 E-score.

Turning to TTTCCAAA, the binding signal was -0.00331 E-score.

AAATCGTA: the binding signal is -0.122 E-score.

Regarding CATGCACG, the binding signal was 0.0334 E-score.

For CGTCAAGC, the binding signal is -0.0428 E-score.

Turning to GGACGGGA, the binding signal was -0.224 E-score.

Regarding ACGCTCAC, the binding signal is 0.00977 E-score.

Turning to GGGTTAAA, the binding signal stood at 0.214 E-score.

As to CGAATTTA, the binding signal is -0.00042 E-score.

In the case of CCACCTCA, the binding signal came out at 0.0301 E-score.

Take CCTTGCAC: the binding signal is -0.0404 E-score.

Take ATGTACGA: the binding signal came to 0.113 E-score.

For ACTAGGTA, the binding signal amounted to 0.0396 E-score.

TATACATA: the binding signal is -0.131 E-score.

As for CGGAGGGC, the binding signal is -0.0217 E-score.

With TCCCACCA, the binding signal is -0.00146 E-score.

For the sequence TAGTCGAA, the binding signal is -0.0878 E-score.

Take AACAGCTT: the binding signal is -0.164 E-score.

For ACGGGGCT, the binding signal was -0.123 E-score.
